# Results published in PubChem BioAssay AID485344 (National Center for Advancing Translational Sciences (NCATS), 2010).
# About 6,900 (2%) of roughly 340,000 compounds were called active. Rule as the data show it: active = inhibition above about 30%; inactive = below that, where a call was filed. This is a selection; strong and weak results do not stand in their true shares. The source gives no active or inactive call for entries shown without one. Some compounds were tested as several samples or in several runs, with calls that do not always agree.
# Biological target: D(2) dopamine receptor (Homo sapiens) (UniProt P14416)
# Assay: HTS Assay for Allosteric Antagonists of the Human D2 Dopamine Receptor: Primary Screen for Antagonists; also: 0% is about no effect
# Settings: HEK293 TREx D2 cells, calcium flux, dopamine EC80; at 10 µM; stronger effect = higher value
# Summary of the method: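 Measurement of antagonist activity uses fluorescent calcium dye in inducible HEK293 T-REx D2 cells: 10 s baseline, compound addition with 180 s read, EC80 dopamine addition with a further 180 s read.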
# Chain of UniProt P14416 (P14416 whole entry, looked up): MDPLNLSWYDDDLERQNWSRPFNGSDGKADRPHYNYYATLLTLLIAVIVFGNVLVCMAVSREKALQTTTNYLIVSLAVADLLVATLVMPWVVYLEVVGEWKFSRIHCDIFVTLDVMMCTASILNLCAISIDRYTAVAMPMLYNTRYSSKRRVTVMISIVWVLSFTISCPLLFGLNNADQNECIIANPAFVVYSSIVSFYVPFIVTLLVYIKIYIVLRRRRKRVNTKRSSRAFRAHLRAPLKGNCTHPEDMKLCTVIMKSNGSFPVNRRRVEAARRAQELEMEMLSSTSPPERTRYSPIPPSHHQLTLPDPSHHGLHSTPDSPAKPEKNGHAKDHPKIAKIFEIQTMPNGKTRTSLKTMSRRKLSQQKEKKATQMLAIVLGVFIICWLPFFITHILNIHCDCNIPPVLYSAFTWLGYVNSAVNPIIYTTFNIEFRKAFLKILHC
row,SMILES,inhibition
1,COc1cccc(-n2c(SCC(=O)c3ccc(Cl)cc3)nc3c([nH]c4ccccc43)c2=O)c1,-0.969%
2,CSc1ccc(CNC(=O)c2ccc(NC(=O)c3nsc4ccccc34)cc2)cc1,9.48%
3,O=C(NCc1ccccc1Cl)NCc1noc2ccccc12,-4%
4,Cc1ccccc1NC(=O)Cn1c(=O)n(CC2CCC(C(=O)NCCc3ccccc3)CC2)c(=O)c2ccccc21 (stereo unspecified),0.728%
5,Nc1c(C(=O)Nc2ccccc2)nnn1Cc1ccc(F)cc1Cl,10.5%
6,Cc1ccc(CNS(=O)(=O)c2ccc(-c3cc(C(F)(F)F)on3)s2)cc1,4.5%
7,CCOc1ccccc1C(=O)Nc1nc2c(s1)CC(C)CC2 (stereo unspecified),-12.3%
8,COc1ccc(Cl)cc1NC(=O)Cn1c(=O)n(CCC(=O)NCc2ccc3c(c2)OCO3)c(=O)c2ccccc21,-2.36%
9,O=C(NCc1ccccc1Cl)C1CCCN(c2ncnc3onc(-c4ccc(F)cc4)c23)C1 (stereo unspecified),23.1%
10,CCOc1ccccc1N1CCN(CC(O)COC2CCCc3ccccc32)CC1 (stereo unspecified),active: 77.9%
11,O=[N+]([O-])c1ccc(OCC(O)CN2CCN(c3ccccc3F)CC2)cc1 (stereo unspecified),active: 90.6%
12,Cc1ccc(S(=O)(=O)NCCSc2nnnn2-c2ccc(Cl)c(C(=O)O)c2)cc1,9.28%
13,CC(=O)Nc1ccc(C2Nc3c(C)cc(C)cc3-c3cc(C)nn32)cc1 (stereo unspecified),-7.41%
14,CCOC(=O)c1ccc(NC(=O)C(Cc2ccccc2)NS(=O)(=O)c2ccc(Br)s2)cc1 (stereo unspecified),6.44%
15,Cc1cc(NNC(=O)c2ccccc2)nc(NNC(=O)c2ccccc2)n1,active: 34%
16,CCOC(=O)c1c(C)oc2nc(C)nc(NCc3ccccc3OCC)c12,-6.21%
17,Cc1cc(C)cc(Nc2sc(C(=O)c3ccccc3)c(N)c2S(=O)(=O)c2ccccc2)c1,-19%
18,CCCc1cc(=O)n2[nH]c(NCc3ccccc3OC)nc2n1,7.19%
19,Cn1c(C(=O)O)c(CC(=O)NCC2COc3ccccc3O2)c2ccccc21 (stereo unspecified),active: 41.9%
20,Cc1ccc(S(=O)(=O)N2CCC(c3ccncc3)CC2)c(C)c1,7.67%
21,COc1cc(/C=C/C(=O)c2ccc3c(c2)OCO3)cc(Cl)c1O,active: 34.8%
22,O=C(COc1ccccc1-c1nc(-c2ccccc2)no1)Nc1ccccc1[N+](=O)[O-],-7.85%
23,CCN(CC)c1ccc(/C=C/c2cc(-c3ccccc3)c3ccccc3n2)cc1,active: 43.3%
24,CCOC(=O)C1=C(CS(=O)(=O)c2ccc(F)cc2)NC(=O)NC1c1ccc(OCC)c(OC)c1 (stereo unspecified),-8.55%

row,SMILES,inhibition
1,CCc1nn(CC(=O)NC(C)c2ccccc2)c(=O)c2cc3sccc3n12 (stereo unspecified),9.27%
2,CCOc1ccc(NC(=O)Cn2nnc(C(=O)Nc3ccc(OCC)cc3)c2N)cc1,17.6%
3,CC(C)CCNC(=O)[C@@H](c1ccccc1)N1Cc2ccccc2C1=O,22.8%
4,Cc1cc(C)cc(OCC(=O)NCC2(N(C)C)CCCCC2)c1,12.4%
5,COc1cccc(NC(=O)C2CCN(C(=O)N3CC(C)Oc4ccccc43)CC2)c1 (stereo unspecified),24.8%
6,O=C(NCCSc1c(-c2ccc(F)cc2)[nH]c2ccccc12)c1ccc(S(=O)(=O)N2CCOCC2)cc1,-11.4%
7,Cc1ccc(CNC(=O)CN2C(=O)C3CCCCN3c3ccc(C(=O)N4CCCC4)cc32)cc1 (stereo unspecified),18.5%
8,O=C(NCc1ccccc1Cl)c1ccc2c(O)c(S(=O)(=O)c3ccccc3)c(=O)[nH]c2c1,8.02%
9,COc1ccc(Cl)cc1C(=O)Nc1ccc(-c2nnc3n2CCCCC3)cc1,0.163%
10,CC(=O)c1ccc(NC(=O)CCc2c(C)nc3cc(-c4ccc(Cl)cc4)nn3c2C)cc1,3.44%
11,COc1cccc(-n2c(SCc3ccccc3C)nc3c([nH]c4ccccc43)c2=O)c1,-1.03%
12,Cc1ccc(C)c(NC(=O)CN(CCc2ccccc2)S(=O)(=O)c2ccccc2)c1,1.03%
13,Cc1cccc(Cc2c(C)nc3nc(SCc4ccccc4C)nn3c2C)c1,12.6%
14,CCc1ccc(NC(=O)Cn2c(=O)n(CCC(=O)NCc3ccc4c(c3)OCO4)c(=O)c3ccccc32)cc1,-9.95%
15,CCC1CN(C(=O)Nc2cc(C)cc(C)c2)c2ccccc2O1 (stereo unspecified),9.06%
16,Cc1cc(NC(=O)c2cc(-c3ccc(Cl)cc3)on2)nn1Cc1ccc(Cl)cc1,-7.91%
17,NC(=O)c1ccc(NCc2ccco2)c([N+](=O)[O-])c1,active: 34.5%
18,Cc1c(C)n(Cc2ccccc2)c2ccc(C(=O)NCc3ccco3)cc12,-7.22%
19,Cc1c(-c2nsc(NC(=O)c3cccs3)n2)nnn1-c1ccc(Br)cc1,8.52%
20,CC(C)(C)c1ccc(C(=O)NC2CCN(Cc3ccccc3)CC2)cc1,active: 53.9%
21,O=C(CCn1ccc2cc(S(=O)(=O)N3CCCC3)ccc21)NCc1cccc(Br)c1,-2.37%
22,Cc1ccc(C)c(Nc2nn3c(=O)c4ccc(C(=O)NC5CCCCC5)cc4nc3s2)c1,4.83%
23,Cc1ccc(C(=O)NCC(c2cccnc2)N2CCc3ccccc32)cc1C (stereo unspecified),-24.9%
24,Cc1ccc(-c2nc3ncccc3o2)cc1NC(=O)c1cccc(OCC(C)C)c1,-3.43%

row,SMILES,inhibition
1,O=C(O)c1ccc(-n2nnnc2SCc2ccccc2F)cc1,active: 37.2%
2,CN(C)S(=O)(=O)c1ccc2c(c1)nnn2CCNC(=O)Nc1ccc(Br)cc1,12.3%
3,O=C(C1CC1)N1CCN(c2nc3ccc(F)cc3s2)CC1,3.05%
4,Cn1c(=O)c2c(nc(NCc3ccccc3)n2Cc2ccccc2Cl)n(C)c1=O,2.84%
5,CCCCOc1ccc(CNC(=O)c2cnc3sc(N4CCOCC4)nn3c2=O)cc1,1.67%
6,COc1cccc(OCc2nc3ccccc3n2CCOc2ccccc2C)c1,-8.84%
7,COc1ccc(S(=O)(=O)NCC(c2ccco2)N2CCOCC2)cc1 (stereo unspecified),-16%
8,CCOC(=O)C1CCCN(CCCc2ccccc2)C1 (stereo unspecified),active: 70%
9,Cc1cc(C)cc(NC(=O)CSc2oc(-c3cccs3)nc2S(=O)(=O)c2ccccc2)c1,-0.926%
10,Cn1c(=O)cc(OCC(=O)NCCCN2CCN(c3cccc(Cl)c3)CC2)c2ccccc21,active: 77.2%
11,CC1CCN(S(=O)(=O)c2cc3c4c(c2)CC(=O)N4CCC3)CC1,-20.1%
12,Fc1ccc(-c2cc(-c3ccccc3)c3c(n2)-c2cc(F)ccc2OC3)cc1,10%
13,Cc1ccc(-c2c(C)n3c4c(=O)n(C)c(=O)n(C)c4nc3n2-c2cccc(O)c2)cc1,-21.7%
14,COc1ccc(NC(=O)CSc2nc3cc(OC)c(OC)cc3c3nc(-c4ccccc4)nn23)cc1Cl,-6.89%
15,COc1ccccc1CNCC(=O)Nc1cc(S(=O)(=O)N2CCOCC2)ccc1Cl,active: 84.8%
16,COc1cc(-c2ccno2)ccc1S(=O)(=O)N1CCN(c2ccccc2F)CC1,5.19%
17,COC(=O)c1ccc(NC(=O)C(=O)NCCc2sc(-c3cccc(F)c3)nc2C)cc1,-13.1%
18,COc1ccc(CC(=O)NCc2nc3cccnc3n2Cc2ccc(C)cc2)cc1,-22.8%
19,CCOC(=O)c1cc(S(=O)(=O)N2CCN(c3cc(C)ccc3C)CC2)[nH]n1,-6.75%
20,COc1ccccc1Nc1nn2c(=O)c3ccc(C(=O)N4CCCCC4)cc3nc2s1,14.6%
21,Cc1cccc(C)c1N1CC(c2nc3ccccc3n2CC(=O)OC(C)C)CC1=O (stereo unspecified),-5.86%
22,CC(=O)Nc1cccc(Oc2ncnc3scc(-c4ccc(C)cc4)c23)c1,active: 33.9%
23,Cc1ccc(OCC(=O)Nc2ccccc2C(=O)OCc2cc(=O)n3ccsc3n2)cc1C,-4.68%
24,COc1ccc(CCNC(=O)CN(c2cc(C(F)(F)F)ccc2Cl)S(C)(=O)=O)cc1,-5.92%

row,SMILES,inhibition
1,Cc1ccccc1NC(=S)N1CCCC(c2nc3ccccc3[nH]2)C1 (stereo unspecified),active: 32%
2,COC(=O)c1sc(NC(=O)c2cc3nc(-c4ccc(Br)cc4)cc(C(F)(F)F)n3n2)c(C(=O)OC)c1C,6.77%
3,CCc1ccc(NC(=O)c2cc3nc(-c4ccc(C)cc4)cc(C(F)(F)F)n3n2)cc1,12.2%
4,CCOC(=O)c1c(NC(=O)Cc2coc3cc(C)ccc23)sc2c1CCCC2,-3.12%
5,O=C(O)Cc1sc(Nc2ccccc2Cl)nc1-c1ccccc1,-4.2%
6,COc1ccccc1N1CCN(S(=O)(=O)c2c(C)sc3ncn(CC(=O)Nc4ccc(C(F)(F)F)cc4)c(=O)c23)CC1,6.47%
7,CC(=O)c1ccc(NC(=O)C2CCCN(S(=O)(=O)c3ccc4c(c3)CCCN4C(C)=O)C2)cc1 (stereo unspecified),-0.676%
8,CCCCn1c(=O)c(C(=O)OCC)c(O)c2ccccc21,active: 38.4%
9,Cc1cc(C)c(NC(=O)CCCN2C(=O)COc3ccc(C)cc32)c(C)c1,0.939%
10,CC(=O)c1cccc(OCC(O)CNCCOc2ccc(C)cc2)c1 (stereo unspecified),active: 42.5%
11,Cc1cc2ncn(/N=C/c3ccc4c(c3)OCO4)c2cc1C,active: 89%
12,COc1ccc(-c2c(C)nn3c4c(cnc23)C(=O)CC(c2ccccc2)C4)cc1 (stereo unspecified),9.18%
13,O=C(CS(=O)(=O)c1cccc2nsnc12)NCc1ccc(Cl)cc1,-6%
14,CC(NC(=O)c1ccc(Nc2nc3ccccc3n3nnnc23)cc1)c1ccccc1 (stereo unspecified),6.65%
15,CCOc1cc(CNc2ncnc3nc[nH]c23)ccc1OC,active: 37.6%
16,CCCCN(C)CCCNC(=O)CN1C(=O)COc2ccc(S(=O)(=O)N3CCOCC3)cc21,-4.37%
17,Cc1nc2nc(-c3ccc(Cl)cc3Cl)nn2c(C)c1CCC(=O)Nc1ccc(F)cc1,-3.74%
18,COc1cccc(N2CC(NC(=O)c3ccc4c(c3)OCO4)CC2=O)c1 (stereo unspecified),-1.43%
19,CCC1CN(C(=O)N2CCC(C(=O)Nc3cc(C)ccc3C)CC2)c2ccccc2O1 (stereo unspecified),-14.7%
20,COc1cc(C2c3c(oc4ccccc4c3=O)C(=O)N2c2nncs2)cc(OC)c1OC (stereo unspecified),3.33%
21,COc1ccc(C(CC(=O)Nc2cccc(C)c2C)N2Cc3ccccc3C2=O)cc1 (stereo unspecified),-0.747%
22,Cc1cccc(-c2cc(NC(=O)C(C)(C)C)n(-c3ccccc3)n2)c1,4.62%
23,CC1CCN(CCc2nc3cc(NC(=O)COc4ccccc4)ccc3n2C)CC1,active: 59.1%
24,O=C(COc1ccc(F)cc1)Nc1ccccc1C(=O)OCc1cc(=O)n2nc(C3CC3)sc2n1,-23.2%
